# Hit rate of the full screen: of about 50,000 compounds, about 800 (1.6%) showed an effect of 50% or more. The list shows a part of the results.
# Target: Bcl-2-like protein 10 (Homo sapiens) (UniProt Q9HD36)
# Experiment: Phenotype converters, Bcl-B/TR3 peptide binding displacement, primary biochemical FP (AID 1240);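 further: 0% = Bcl-B with tracer peptide and DMSO and 100% = tracer peptide lacking Bcl-B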
# Conditions: GST-Bcl-B / FITC-TR3 peptide fluorescence polarization; stronger effect = higher value; compound at 3.75 mg/L
# UniProt Q9HD36, sequence (Q9HD36 whole entry, looked up): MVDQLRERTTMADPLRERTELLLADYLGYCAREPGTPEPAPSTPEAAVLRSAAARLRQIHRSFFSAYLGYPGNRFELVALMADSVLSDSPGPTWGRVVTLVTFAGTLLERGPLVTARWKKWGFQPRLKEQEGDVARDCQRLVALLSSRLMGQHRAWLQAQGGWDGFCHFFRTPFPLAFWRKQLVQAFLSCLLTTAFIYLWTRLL
row,SMILES,displacement
1,CSCCNS(=O)(=O)c1ccc(NC(C)=O)cc1,-6%
2,COc1ccc(C2(CNC(=S)Nc3ccccc3)CCCC2)cc1,-12.6%
3,CCOC(=O)c1c(NC(=O)C(C)C)sc(C(N)=O)c1C,0.3%
4,Cc1c(C(=O)OC(C)C)sc(NC(=O)c2cccs2)c1C(=O)OC(C)C,-2.6%
5,CC(CNC(=O)Nc1cccc(Cl)c1)NC(=O)Nc1cccc(Cl)c1 (configuration not stated),13.1%
6,CN(C)c1ccc(/C=C/C=C/c2cc[n+](CCCS(=O)(=O)[O-])cc2)cc1,-6.7%
7,O=C(/C=C/c1ccc(OC2CSC2)cc1)c1ccc2c(c1)OCCO2,1.5%
8,CCc1ccccc1NC(=O)C1CC1(c1ccccc1)c1ccccc1 (configuration not stated),-5.3%
9,O=C(Nc1cccc(Cl)c1)c1ccccc1C(F)(F)F,7.8%
10,O=C(CCCN1C(=O)c2cccc3cccc(c23)C1=O)N1CCN(C/C=C/c2ccccc2)CC1,12.9%
11,COc1ccc(-c2nc3cc(NC(=O)c4ccc(C)c(C)c4)ccc3o2)cc1,7.1%
12,O=C1C(c2ccccc2)=S=C2N=C(c3ccccc3)C=CN12,-4.8%
13,Cc1ccc(OCC(=O)Nc2nc3ccccc3s2)cc1,2.5%
14,CCc1ccc(OCCOCCN2CCC(C)CC2)cc1,-1.2%
15,Cc1ccc(OCC(=O)Nc2ccccc2Cl)cc1C,-8.6%
16,CC(C)(C)c1ccc(S(=O)(=O)N2CCN(c3ccc(F)cc3)CC2)cc1,-16.6%
17,CC(=O)NC1=NC(=O)/C(=C\c2ccc(Cl)cc2)S1,133%
18,COc1ccc(/C(N)=N/OC(=O)c2ccc(Cl)cc2)cc1,83.7%
19,O=[N+]([O-])c1cc2c(cc1/C=N/NS(=O)(=O)c1ccccc1)OCO2,21.9%
20,COc1ccc(C2CC(=O)C3=C(C2)Nc2ccccc2NC3c2cc(Br)ccc2OC)cc1 (configuration not stated),-8.7%
21,O=[N+]([O-])c1ccc2c(c1)c1ccccc1n2Cc1ccccc1O,-13.3%
22,O=C(NC1CCCCC1)c1nc2nc(-c3ccccc3)cc(C(F)(F)F)n2n1,-8%

row,SMILES,displacement
1,Cc1cc(/C=N\Nc2ccc([N+](=O)[O-])cn2)c(C)n1-c1ccc(C(=O)O)cc1,-8.8%
2,CCc1ncc(C(O)c2cccc(OC)c2OC)n1C (configuration not stated),0.9%
3,O=C(NN1C(=O)/C(=C/c2ccc(Cl)cc2Cl)SC1=S)c1ccccc1Cl,5.7%
4,CCc1ccccc1NC(=O)C1CC(=O)N(c2cccc([N+](=O)[O-])c2)C1 (configuration not stated),0%
5,COC(=O)c1sc(NC(=O)CCc2ccccc2)c(C(=O)OC)c1C,-1.1%
6,Cc1ccc(C2OCC3(CO)COC(c4ccc(C)cc4)N23)cc1 (configuration not stated),-10.7%
7,CCc1nnc(NC(=S)NC(=O)c2ccccc2)s1,2.2%
8,COc1ccccc1OCCNC(=O)C(c1ccccc1)c1ccccc1,8%
9,O=C(CSc1nc2sc3c(c2c(=O)n1-c1ccccc1)CCCC3)NCCO,-0.6%
10,Cc1cc(C)cc(NC(=O)CN(CCc2ccccc2)S(=O)(=O)c2ccccc2)c1,9.3%
11,COc1ccc(OC)c(N(CC(=O)Nc2cccc(Cl)c2)S(C)(=O)=O)c1,9.2%
12,Cc1cc(C)n(-c2cc(N(C)C)nc(C)n2)n1,-13.5%
13,COC(=O)C1=C(C)NC2=C(C(=O)CCC2)C1c1ccc(OCc2ccc(F)cc2)c(OC)c1 (configuration not stated),-1.7%
14,Cc1ccc(C)c(S(=O)(=O)Nc2c(C)n(C)n(-c3ccccc3)c2=O)c1,8.5%
15,CN(C)c1ccc(C(=S)N2CCCCC2)cc1,-9.1%
16,S=c1[nH]nc(-c2ccccc2)n1C1CCCCC1,-20.8%
17,CCc1c(C)sc(NC(=O)COc2ccc(Cl)cc2)c1C(N)=O,24.5%
18,CCCCCOC(=O)C1=C(C)NC2=C(C(=O)CCC2)C1c1cccc(Cl)c1 (configuration not stated),0%
19,Cc1ccccc1N/C=C/C(=O)c1ccc(Cl)cc1,-27.6%
20,Oc1ccccc1-c1nc(-c2ccccc2)c(-c2cccs2)[nH]1,9.6%
21,CCOC(=O)c1c(-c2ccc(Br)cc2)csc1NC(=O)c1ccco1,9.3%
22,CCOc1cccc(-c2cc(C(=O)N3CCN(c4ccccc4OCC)CC3)c3ccccc3n2)c1,28.3%

row,SMILES,displacement
1,CCCCOC(=O)c1ccc(NC(=O)Nc2ccc(OC)c(OC)c2)cc1,-20.8%
2,O=C(CSc1ncn[nH]1)Nc1ccccc1F,10.2%
3,CC(C)CNC(=O)CCCOc1ccc(Cl)cc1Cl,-10.3%
4,CCCCOC(C)n1cc(F)c(=O)[nH]c1=O (configuration not stated),9%
5,C=CCNC(=O)CN(c1ccc(OC)cc1OC)S(=O)(=O)c1ccc(C)cc1,8.5%
6,CN(C)c1ccc(C2/C(=C(\O)c3ccccc3)C(=O)C(=O)N2c2cccnc2)cc1 (configuration not stated),7%
7,COc1ccc(C(=O)c2ccc(Br)c([N+](=O)[O-])c2)cc1,0%
8,Cc1c(Cl)cccc1NC(=O)CN(c1ccc(Br)cc1)S(=O)(=O)c1ccccc1,0%
9,CC(=O)c1cccc(NC(=O)c2ccc(C)c([N+](=O)[O-])c2)c1,-5%
10,COC(=O)/C(=C\c1ccc(Cl)cc1)[N+](=O)[O-],9.7%
11,CC1CN(c2ccc([N+](=O)[O-])cc2Cl)CCN1S(=O)(=O)c1ccccc1 (configuration not stated),10.3%
12,C=CCN1C(=O)C(C)(C)Nc2ccccc21,-0.3%
13,O=C(NCc1cccc(CNC(=O)NC2CCCCC2)c1)NC1CCCCC1,-10.9%
14,CCOC(=O)COc1ccc2cc(-c3nc4ccccc4o3)c(=O)oc2c1,8.8%
15,COc1ccc2ccccc2c1/C=C1/C(=O)NC(=S)N(c2ccc(Br)cc2)C1=O,2.9%
16,O=S1(=O)N=C(Oc2ccc(-c3ccccc3)cc2)c2ccccc21,5.8%
17,COc1ccc(C2C(C(=O)OCC3CCCO3)=C(C)NC3=C2C(=O)CC(C)(C)C3)c(OC)c1OC (configuration not stated),-8.3%
18,COC(=O)c1sc(NC(=O)c2c(-c3ccccc3)noc2C)c(C(=O)OC)c1C,-7.2%
19,O=C(Cc1ccccc1)Nc1ccc(I)cc1Cl,-3.1%
20,CCOc1ccc(C(=O)Nc2cccc(NC(=O)c3cccc(Cl)c3)c2)cc1Cl,7.8%
21,Clc1ccc(Cc2nc(-c3ccncc3)no2)cc1,-12.3%
22,CCOC(=O)C1=NNC2(c3ccc(Cl)cc3)C(=O)N(c3cccc(OC)c3)C(=O)C12 (configuration not stated),14%

row,SMILES,displacement
1,Cc1[nH]n(-c2ccccc2)c(=O)c1C(=O)c1cccc(F)c1,0%
2,CN(C)c1ccc(/C=C/C(=O)c2cccc([N+](=O)[O-])c2)cc1,6.7%
3,COc1ccc(C(=O)Nc2ccc(Cc3ccncc3)cc2)cc1OC,-10.9%
4,COc1ccc(CCNC(=O)CN(c2ccc(C)cc2)S(=O)(=O)c2ccccc2)cc1OC,1.7%
5,O=C(O)COc1ccc(Br)cc1/C=C1\C(=O)NC(=O)N(c2ccc(Cl)cc2)C1=O,8%
6,CC(C)c1ccc(-c2nn(-c3ccccc3)cc2/C=N/O)cc1,2.5%
7,COc1ccc(C2=N/C(=C\N(C)C)C(=O)O2)cc1,-9%
8,CC1=NN(c2ccc(Cl)c(C(=O)O)c2)C(=O)/C1=C\c1ccc(-c2cccc([N+](=O)[O-])c2)o1,11.9%
9,COc1ccc(/C=C2\C(=O)NN(c3ccccc3)C2=O)c(OC)c1OC,-17.8%
10,O=C(O/N=C(/c1ccncc1)c1ccc([N+](=O)[O-])cc1)c1ccc(Br)cc1,8.4%
11,O=C1NC(c2cccc([N+](=O)[O-])c2)Nc2c1sc(=S)n2-c1ccccc1 (configuration not stated),10.8%
12,COc1ccc(NC(=O)CN(c2ccc(C)cc2)S(=O)(=O)c2ccc(F)cc2)cc1OC,-24.5%
13,O=C(O)CN(CCc1ccccc1)S(=O)(=O)c1ccc(Br)cc1,14.5%
14,CCOc1ccccc1OCCOc1ccc(Cl)c(CC)c1,-0.9%
15,CCNC(=S)NNc1nc(N2CCCCC2)nc(N2CCOCC2)n1,-25.1%
16,COc1ccc(S(=O)(=O)N(Cc2ccccc2)c2ccccc2C(=O)O)cc1,2.3%
17,O=S(=O)(Nc1ccc(N2CCCCC2)cc1)c1cccs1,-8.8%
18,COC(=O)c1ccc(COc2ccc3c(c2)oc(=O)c2ccccc23)cc1,12%
19,COc1cc(C(=O)Nc2c(C)cc(C)c(NC(=O)c3cc(OC)c(OC)c(OC)c3)c2C)cc(OC)c1OC,-0.6%
20,COc1cc(/C(C)=N/N2CCN(Cc3cccc4ccccc34)CC2)ccc1O,-2.5%
21,COc1cc(/C=C2\C(=O)NC(=O)N(c3ccc(Cl)cc3)C2=O)ccc1OCC(=O)O,-9.7%
22,O=C(Nc1ccccc1[N+](=O)[O-])C1COc2ccccc2O1 (configuration not stated),5.2%

row,SMILES,displacement
1,O=C(CN1C(=O)c2ccc([N+](=O)[O-])cc2C1=O)Nc1ccc(Br)cc1C(=O)O,16.2%
2,O=c1c2c(nc3cc(-c4ccc(F)cc4)[nH]n13)CCC2,16.7%
3,CCN(CC)C(=O)c1ccc(CN(c2cc(Cl)ccc2C)S(=O)(=O)c2ccccc2)cc1,-3.4%
4,COC(=O)c1ccc(C(c2ccc(C(=O)OC)cc2)(C(F)(F)F)C(F)(F)F)cc1,3.3%
5,CCOc1ccccc1NC(=O)c1c(NC(=O)c2ccccc2C)sc2c1CCCCC2,-2.6%
6,Cc1c(NC(=O)Nc2ccc3ccccc3c2)c(=O)n(-c2ccccc2)n1C,-7.3%
7,Cc1cc2nc3s/c(=C/c4ccc(-c5ccc(Cl)cc5)o4)c(=O)n3c2cc1C,23.1%
8,NNC(=O)CN1C(=O)Nc2ccc(Br)cc2C1c1ccccc1 (configuration not stated),-2%
9,Cc1[nH]c2ccccc2c1C(=O)NS(=O)(=O)c1ccccc1Cl,21.7%
10,CCN(CC)S(=O)(=O)c1ccc(Cl)c(C(=O)NC2CCCCC2)c1,14.8%
11,CC(C)Oc1ccc(C(=O)Nc2nc(-c3ccc(F)cc3F)cs2)cc1,-2.7%
12,O=C(CCCN1C(=O)c2cccc3cccc(c23)C1=O)OCC(=O)c1ccc(F)cc1,-39.8%
13,O=C(COc1ccccc1)Nc1nnc(Cc2ccccc2)s1,12.7%
14,CC(/C=C/c1ccc(Br)cc1)=C\C(=O)O,-2.1%
15,CCOC(=O)/C(C(N)=NCCO)=C(/O)OCC,-7.2%
16,COc1ccc2ccccc2c1-c1nnc2ccc3ccccc3n12,-21%
17,Cc1ccc(OCC(=O)Nc2c(C(C)C)cccc2C(C)C)cc1C,5%
18,Cc1cccc(C(=O)Nc2c(C(=O)N(C)C)cnn2-c2ccccc2)c1,-12.3%
19,COc1ccc2nc(NC(=O)c3ccc(S(=O)(=O)N(C)C)cc3)sc2c1,13.1%

# Source: PubChem BioAssay AID1240 (Sanford-Burnham Center for Chemical Genomics, 2008)
